From article PMC4336329 (PLoS ONE, 2015)
In all, about 310,000 compounds went through this assay and about 14,000 (4.5%) showed an effect of 50% or more. Effects have a minus sign here. The list shows a part of the results.

biological target: human ether-à-go-go-related gene (hERG) potassium channel (human, UniProt Q12809); experiment: primary screen, population patch clamp on CHO cells stably expressing hERG
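Further: peak tail current of the secondary pulse compared with the same well before compound.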

human ether-à-go-go-related gene (hERG) potassium channel, sequence (Q12809 whole entry, looked up): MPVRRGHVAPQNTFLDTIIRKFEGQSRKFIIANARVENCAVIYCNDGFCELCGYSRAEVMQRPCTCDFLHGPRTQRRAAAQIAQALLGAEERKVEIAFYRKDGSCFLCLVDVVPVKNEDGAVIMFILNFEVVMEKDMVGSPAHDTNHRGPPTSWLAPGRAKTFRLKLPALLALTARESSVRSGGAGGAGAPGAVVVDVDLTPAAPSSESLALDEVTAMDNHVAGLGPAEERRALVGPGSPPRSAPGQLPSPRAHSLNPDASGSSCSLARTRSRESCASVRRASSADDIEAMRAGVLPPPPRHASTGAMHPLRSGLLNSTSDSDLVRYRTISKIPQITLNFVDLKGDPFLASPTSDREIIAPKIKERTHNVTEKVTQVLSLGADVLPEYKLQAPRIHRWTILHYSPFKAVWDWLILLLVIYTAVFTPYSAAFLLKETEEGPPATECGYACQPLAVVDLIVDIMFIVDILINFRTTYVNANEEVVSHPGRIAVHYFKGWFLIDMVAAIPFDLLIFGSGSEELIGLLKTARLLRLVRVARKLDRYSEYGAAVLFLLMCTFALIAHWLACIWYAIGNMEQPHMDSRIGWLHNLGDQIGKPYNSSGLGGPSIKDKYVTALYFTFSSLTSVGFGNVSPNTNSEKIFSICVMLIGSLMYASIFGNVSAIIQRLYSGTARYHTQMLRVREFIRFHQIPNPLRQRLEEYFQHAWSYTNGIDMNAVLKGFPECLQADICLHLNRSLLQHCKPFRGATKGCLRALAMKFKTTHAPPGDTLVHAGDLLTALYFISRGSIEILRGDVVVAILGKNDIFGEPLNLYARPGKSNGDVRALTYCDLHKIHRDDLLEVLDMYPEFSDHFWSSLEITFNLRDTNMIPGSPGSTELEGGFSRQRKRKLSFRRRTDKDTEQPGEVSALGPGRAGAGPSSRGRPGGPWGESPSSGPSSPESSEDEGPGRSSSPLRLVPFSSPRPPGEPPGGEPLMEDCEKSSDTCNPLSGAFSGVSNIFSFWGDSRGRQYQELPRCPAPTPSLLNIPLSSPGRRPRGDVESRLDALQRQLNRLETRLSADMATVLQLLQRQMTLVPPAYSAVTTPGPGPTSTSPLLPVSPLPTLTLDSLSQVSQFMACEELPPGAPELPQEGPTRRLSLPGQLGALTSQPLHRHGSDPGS

Q: Which “hERG current change (%, negative = inhibition) at 10uM” value does the source give for `CC(NC(=O)/C=C/c1ccco1)c1nc2ccccc2n1Cc1ccccc1F` (stereo not shown) here?
A: The value was 0.704%.

Q: `CN(Cc1ccc(Cl)cc1)C(=O)c1cc(S(=O)(=O)N2CCOCC2)ccc1N1CCCC1` was tested. Which “hERG current change (%, negative = inhibition) at 10uM” value did it give?
A: The value was -72.8%.

Q: Which “hERG current change (%, negative = inhibition) at 10uM” value does the source give for `CCOC(=O)c1c(C)c(C#N)c2c3ccccc3ccn12` here?
A: Its value is 9.73%.

Q: With `CN1C2CCC1CC(NC(=O)c1cccc(C(F)(F)F)c1)C2` (stereo not shown) as the compound, how does the “hERG current change (%, negative = inhibition) at 10uM” value read?
A: The value was 9.37%.

Q: Which “hERG current change (%, negative = inhibition) at 10uM” value does the source give for `O=C(Cc1ccc([N+](=O)[O-])cc1)NC1CCCCCC1` here?
A: The value was 7.55%.

Q: How did the “hERG current change (%, negative = inhibition) at 10uM” value turn out when `CCOC(=O)[C@@H]1[C@H]2COc3ccccc3[C@@H]2N2C(=O)N(c3ccccc3)C(=O)[C@@]12C` was run?
A: Its value is 11.4%.

Q: Which “hERG current change (%, negative = inhibition) at 10uM” value does the source give for `CC(=O)Oc1ccccc1C(=O)OCCN=C1NS(=O)(=O)c2ccccc21` here?
A: Its value is 19.3%.

Q: `COc1ccccc1NC(=O)CN(C)S(=O)(=O)c1ccc(F)cc1` was tested. Which “hERG current change (%, negative = inhibition) at 10uM” value did it give?
A: Its value is -8.56%.

Q: For `COc1ccc(/C(N)=N/OC(=O)c2ccc3c(c2)OCO3)cc1`, which “hERG current change (%, negative = inhibition) at 10uM” value is on record?
A: The value was 14.6%.

Q: With `Cc1cc(C)nc(N/N=C/c2cc3c(cc2[N+](=O)[O-])OCO3)n1` as the compound, how does the “hERG current change (%, negative = inhibition) at 10uM” value read?
A: Its value is 24%.

Q: For `CC(C)N(C(=O)CSc1nc2ccccc2c(=O)[nH]1)C(C)C`, which “hERG current change (%, negative = inhibition) at 10uM” value is on record?
A: Its value is 6.12%.

Q: How did the “hERG current change (%, negative = inhibition) at 10uM” value turn out when `O=C(c1ccc(Cl)cc1Cl)N1CCC(c2nc3c(nnn3Cc3ccco3)c(=O)[nH]2)CC1` was run?
A: The value was -69%.

Q: For `O=S(=O)(c1ccccc1F)N1CCN(C(=S)NCc2ccccc2)CC1`, which “hERG current change (%, negative = inhibition) at 10uM” value is on record?
A: Its value is -4.25%.

Q: Which “hERG current change (%, negative = inhibition) at 10uM” value does the source give for `CCCn1c(N)c(N2CCCCC2)c(=O)n(CC(=O)Nc2ccccc2C)c1=O` here?
A: The value was 14.6%.

Q: With `Cn1c(SCC(=O)Nc2ccc3c(c2)OCCO3)nnc1C1CC1` as the compound, how does the “hERG current change (%, negative = inhibition) at 10uM” value read?
A: Its value is 18.5%.

Q: For `NC(=O)C1CCN(CC(O)CSc2ccccc2)CC1` (stereo not shown), which “hERG current change (%, negative = inhibition) at 10uM” value is on record?
A: The value was -0.00192%.

Q: For `COC(=O)C1=C(c2ccc(C(C)=O)cc2)C[C@@H]2CC[C@H]1N2C(=O)NCc1ccc2c(c1)OCO2`, which “hERG current change (%, negative = inhibition) at 10uM” value is on record?
A: The value was -37.3%.

Q: With `CCc1cccc(NC(=O)C2CCCC2)c1` as the compound, how does the “hERG current change (%, negative = inhibition) at 10uM” value read?
A: The value was 22.7%.

Q: `O=C(Cn1cnc2c(nnn2-c2ccccc2)c1=O)N1CCC(Cc2ccccc2)CC1` was tested. Which “hERG current change (%, negative = inhibition) at 10uM” value did it give?
A: The value was -47.6%.

Q: For `O=C(NNC(=O)c1cc(Br)c(Br)s1)c1csc(N2CCOCC2)n1`, which “hERG current change (%, negative = inhibition) at 10uM” value is on record?
A: The value was 23.9%.

Q: `COc1ccc(N2CCN(CCNC(=O)c3ccc4c(c3)[nH]c(=S)n3c5ccccc5nc43)CC2)cc1` was tested. Which “hERG current change (%, negative = inhibition) at 10uM” value did it give?
A: The value was 17%.

Q: Which “hERG current change (%, negative = inhibition) at 10uM” value does the source give for `CCN(CC)C(=O)COc1ccc(N(C)S(=O)(=O)c2ccc(NC(C)=O)cc2)cc1` here?
A: The value was -7.5%.

Q: For `CSc1nc(N2CCOCC2)nc2ccc(C)cc12`, which “hERG current change (%, negative = inhibition) at 10uM” value is on record?
A: Its value is 2.43%.

Q: With `CN1C(C(=O)NCc2cccc(C(F)(F)F)c2)CC2Cn3c(nc4ccccc43)C21` (stereo not shown) as the compound, how does the “hERG current change (%, negative = inhibition) at 10uM” value read?
A: Its value is -47.4%.

Q: For `O=C(COc1ccccc1)N/N=C/c1cc2c(cc1[N+](=O)[O-])OCO2`, which “hERG current change (%, negative = inhibition) at 10uM” value is on record?
A: Its value is -21.3%.

Q: For `Cc1ccc(CNC(=O)C2CCC(CNc3c(N4CCC(C)CC4)c(=O)c3=O)CC2)cc1` (stereo not shown), which “hERG current change (%, negative = inhibition) at 10uM” value is on record?
A: The value was 1.97%.

Q: Which “hERG current change (%, negative = inhibition) at 10uM” value does the source give for `O=C(CN1CCN(CC(=O)c2ccc(F)cc2)CC1)Nc1ccccc1Cl` here?
A: Its value is -68.9%.

Q: With `O=C(O)/C=C\C(=O)NCc1ccccc1` as the compound, how does the “hERG current change (%, negative = inhibition) at 10uM” value read?
A: The value was 15.4%.

Q: `COC(=O)c1cc(C)sc1NC(=O)C1CC=CCC1C(=O)O` (stereo not shown) was tested. Which “hERG current change (%, negative = inhibition) at 10uM” value did it give?
A: The value was -4.51%.

Q: `Cc1ccc(C2=NN3C(=O)c4ccccc4C3C2)cc1` (stereo not shown) was tested. Which “hERG current change (%, negative = inhibition) at 10uM” value did it give?
A: The value was -22.4%.

Q: `CCOCCc1nnc(NC(=O)CS(=O)(=O)c2ccc(C)cc2)s1` was tested. Which “hERG current change (%, negative = inhibition) at 10uM” value did it give?
A: The value was -21.5%.

Q: With `CCOP(=O)(OCC)C(NC(=O)c1ccc(OC)cc1)c1ccccc1` (stereo not shown) as the compound, how does the “hERG current change (%, negative = inhibition) at 10uM” value read?
A: The value was 14.2%.

Q: With `CCC(=O)Oc1ccc(NC(=O)c2ccco2)cc1` as the compound, how does the “hERG current change (%, negative = inhibition) at 10uM” value read?
A: Its value is -5.67%.

Q: Which “hERG current change (%, negative = inhibition) at 10uM” value does the source give for `Cc1cc(C)n(C(=O)c2ccc(C)o2)n1` here?
A: Its value is -0.589%.

Q: For `O=S(=O)(c1cccs1)N1CN(Cc2ccco2)c2nc3ccccc3nc21`, which “hERG current change (%, negative = inhibition) at 10uM” value is on record?
A: Its value is -21.9%.

Q: `CN(C)S(=O)(=O)c1cccc(NC(=O)c2cc(=O)[nH]c(=O)[nH]2)c1` was tested. Which “hERG current change (%, negative = inhibition) at 10uM” value did it give?
A: Its value is 28.1%.

Q: Which “hERG current change (%, negative = inhibition) at 10uM” value does the source give for `CNCC(O)Cn1c2c(c3ccccc31)CCCC2` (stereo not shown) here?
A: The value was -16.6%.

Q: `S=c1[nH]nc(COc2ccc(Cl)cc2)n1Cc1ccccc1` was tested. Which “hERG current change (%, negative = inhibition) at 10uM” value did it give?
A: Its value is 5.79%.

Q: How did the “hERG current change (%, negative = inhibition) at 10uM” value turn out when `COc1cccc(NC(=O)C(OC(=O)/C=C/c2ccc3c(c2)OCO3)c2ccccc2)c1` (stereo not shown) was run?
A: Its value is -4.56%.

Q: `COC(=O)Cn1c(-c2ccc(OC)cc2)c(-c2ccc(OC)cc2)nnc1=O` was tested. Which “hERG current change (%, negative = inhibition) at 10uM” value did it give?
A: Its value is 2.38%.

Q: How did the “hERG current change (%, negative = inhibition) at 10uM” value turn out when `O=C(O)c1cccc2c1C(=O)N(Cc1ccncc1)C2` was run?
A: Its value is 18.7%.

Q: For `Cc1ccc(NC(=O)C2C3CC4OC(=O)C2C4C3)cc1Cl` (stereo not shown), which “hERG current change (%, negative = inhibition) at 10uM” value is on record?
A: Its value is 3.85%.

Q: For `C/C(CC(=O)Nc1cccc(Cl)c1Cl)=N\NC(=O)c1ccccc1N`, which “hERG current change (%, negative = inhibition) at 10uM” value is on record?
A: The value was 14.7%.
